# Assay results taken from the supplement of paper PMC8728848.
# The list shows a part of the results.
# B1: LSectin (Mus musculus), Q8BNX1 (protein)
# chain: MNTGEYNKLGSAIEEVSRGQLGRWECYKQRLFFLVLALLVATVLWALILSTLLSSASSKLRVLLSHQDLLRTNASEQKMTLSSLKDDIGACRNCCSVTKAQLQTTLAEFKDIQAKLMEQESILKELQERVTQDLAKASRDRENIRSELFQALEAVKRQNSSCEQCPPSWLPFQGSCYYFSETQATWDTAQSYCGGQGAHLVIVRGLNEQGFLSQHTRGRGYWLGLRAVRHLNKIQGYRWVDGASLNFSHWNSGEPNDSRGHEDCIMMLHSGLWNDAPCTNERDGWICEKRSSCY
# Columns and labels:
# Assay in all cases: glycan array binding signal (z-score within array); higher = stronger binding
# Conditions in all cases: glycan notation: IUPAC condensed, linker removed
# [1] = target: GlcNAc(b1-4)GlcNAc(b1-4)GlcNAc(b1-4)GlcNAc(b1-4)GlcNAc
# How it was run: (§1)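 Arrays were curated from the Consortium for Functional Glycomics database, 3228 in total, and kept only where the protein sequence was available. Binding is expressed as a within-array Z-score. This score was averaged across arrays of the same protein sequence at different concentrations or buffers and across linkers, and negative values can be read as non-binding.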
# [2] = target: GlcNAc(b1-4)GlcNAc(b1-4)GlcNAc(b1-4)GlcNAc(b1-4)GlcNAc(b1-4)GlcNAc
# How it was run: as §1
# [3] = target: GlcNAc(b1-4)[GlcNAc(b1-6)]GalNAc
# How it was run: as §1
# [4] = target: GlcNAc(b1-6)Gal(b1-4)GlcNAc
# How it was run: as §1
# GlcNAc(b1-6)GalNAc = target: GlcNAc(b1-6)GalNAc
# How it was run: as §1
# GlcNAc3Prop(b1-4)GlcNAc = target: GlcNAc3Prop(b1-4)GlcNAc
# How it was run: as §1
# [5] = target: GlcNAc6S(b1-3)Gal(b1-4)GlcNAc
# How it was run: as §1
# Kdn(a2-3)Gal(b1-3)GalNAc = target: Kdn(a2-3)Gal(b1-3)GalNAc
# How it was run: as §1
# Kdn(a2-3)Gal(b1-3)GlcNAc = target: Kdn(a2-3)Gal(b1-3)GlcNAc
# How it was run: as §1
# Kdn(a2-3)Gal(b1-4)Glc = target: Kdn(a2-3)Gal(b1-4)Glc
# How it was run: as §1
# Kdn(a2-3)Gal(b1-4)GlcNAc = target: Kdn(a2-3)Gal(b1-4)GlcNAc
# How it was run: as §1
# [6] = target: Kdn(a2-3)Gal(b1-4)[Fuc(a1-3)]GlcNAc
# How it was run: as §1
# Kdn(a2-6)Gal(b1-4)GlcNAc = target: Kdn(a2-6)Gal(b1-4)GlcNAc
# How it was run: as §1
# [7] = target: Man(a1-2)Man(a1-2)Man(a1-3)Man
# How it was run: as §1
# [8] = target: Man(a1-2)Man(a1-2)Man(a1-6)[Man(a1-3)]Man
# How it was run: as §1
# Man(a1-2)Man(a1-3)Man = target: Man(a1-2)Man(a1-3)Man
# How it was run: as §1
# [9] = target: Man(a1-2)Man(a1-3)[Man(a1-2)Man(a1-6)]Man
# How it was run: as §1
# [10] = target: Man(a1-2)Man(a1-3)[Man(a1-2)Man(a1-6)]Man(a1-6)[Man(a1-2)Man(a1-2)Man(a1-3)]Man
# How it was run: as §1
# [11] = target: Man(a1-2)Man(a1-3)[Man(a1-2)Man(a1-6)]Man(a1-6)[Man(a1-2)Man(a1-2)Man(a1-3)]Man(b1-4)GlcNAc(b1-4)GlcNAc
# How it was run: as §1
# [12] = target: Man(a1-2)Man(a1-3)[Man(a1-6)]Man(a1-6)[Man(a1-2)Man(a1-3)]Man(b1-4)GlcNAc(b1-4)GlcNAc
# How it was run: as §1
# [13] = target: Man(a1-2)Man(a1-6)[Man(a1-3)]Man(a1-6)[Man(a1-2)Man(a1-2)Man(a1-3)]Man
# How it was run: as §1
# [14] = target: Man(a1-2)Man(a1-6)[Man(a1-3)]Man(a1-6)[Man(a1-2)Man(a1-2)Man(a1-3)]Man(b1-4)GlcNAc(b1-4)GlcNAc
# How it was run: as §1
# Man(a1-3)[Man(a1-6)]Man = target: Man(a1-3)[Man(a1-6)]Man
# How it was run: as §1
# [15] = target: Man(a1-3)[Man(a1-6)]Man(a1-6)[Man(a1-2)Man(a1-3)]Man(b1-4)GlcNAc(b1-4)GlcNAc
# How it was run: as §1
# [16] = target: Man(a1-3)[Man(a1-6)]Man(a1-6)[Man(a1-3)]Man
# How it was run: as §1
# [17] = target: Man(a1-3)[Man(a1-6)]Man(a1-6)[Man(a1-3)]Man(b1-4)GlcNAc(b1-4)GlcNAc
# How it was run: as §1
# [18] = target: Man(a1-3)[Man(a1-6)]Man(b1-4)GlcNAc(b1-4)GlcNAc
# How it was run: as §1
# Man(a1-6)Man = target: Man(a1-6)Man
# How it was run: as §1
# Man(b1-4)GlcNAc = target: Man(b1-4)GlcNAc
# How it was run: as §1
# Neu5Ac(a2-3)Gal = target: Neu5Ac(a2-3)Gal
# How it was run: as §1
# [19] = target: Neu5Ac(a2-3)Gal(b1-3)GalNAc
# How it was run: as §1
# [20] = target: Neu5Ac(a2-3)Gal(b1-3)GalNAc(b1-3)Gal(a1-4)Gal(b1-4)Glc
# How it was run: as §1
# [21] = target: Neu5Ac(a2-3)Gal(b1-3)GalNAc(b1-3)Gal(b1-4)GlcNAc
# How it was run: as §1
# [22] = target: Neu5Ac(a2-3)Gal(b1-3)GalNAc(b1-4)[Neu5Ac(a2-3)]Gal(b1-4)Glc
# How it was run: as §1
# [23] = target: Neu5Ac(a2-3)Gal(b1-3)GalNAc(b1-4)[Neu5Ac(a2-8)Neu5Ac(a2-3)]Gal(b1-4)Glc
# How it was run: as §1
# [24] = target: Neu5Ac(a2-3)Gal(b1-3)GalNAc6S
# How it was run: as §1
# [25] = target: Neu5Ac(a2-3)Gal(b1-3)GlcNAc
# How it was run: as §1
# [26] = target: Neu5Ac(a2-3)Gal(b1-3)GlcNAc(b1-2)Man(a1-3)[Neu5Ac(a2-3)Gal(b1-3)GlcNAc(b1-2)Man(a1-6)]Man(b1-4)GlcNAc(b1-4)GlcNAc
# How it was run: as §1
# [27] = target: Neu5Ac(a2-3)Gal(b1-3)GlcNAc(b1-3)Gal(b1-3)GlcNAc
# How it was run: as §1
# [28] = target: Neu5Ac(a2-3)Gal(b1-3)GlcNAc(b1-3)Gal(b1-4)GlcNAc
# How it was run: as §1
# [29] = target: Neu5Ac(a2-3)Gal(b1-3)GlcNAc(b1-3)GalNAc
# How it was run: as §1
# [30] = target: Neu5Ac(a2-3)Gal(b1-3)GlcNAc6S
# How it was run: as §1
# [31] = target: Neu5Ac(a2-3)Gal(b1-3)[Fuc(a1-4)]GlcNAc
# How it was run: as §1
# [32] = target: Neu5Ac(a2-3)Gal(b1-3)[Fuc(a1-4)]GlcNAc(b1-3)Gal(b1-3)[Fuc(a1-4)]GlcNAc
# How it was run: as §1
# [33] = target: Neu5Ac(a2-3)Gal(b1-3)[Fuc(a1-4)]GlcNAc(b1-3)Gal(b1-4)[Fuc(a1-3)]GlcNAc
# How it was run: as §1
# [34] = target: Neu5Ac(a2-3)Gal(b1-3)[Neu5Ac(a2-3)Gal(b1-4)]GlcNAc
# How it was run: as §1
# [35] = target: Neu5Ac(a2-3)Gal(b1-3)[Neu5Ac(a2-6)]GalNAc
# How it was run: as §1
# Neu5Ac(a2-3)Gal(b1-4)Glc = target: Neu5Ac(a2-3)Gal(b1-4)Glc
# How it was run: as §1
# [36] = target: Neu5Ac(a2-3)Gal(b1-4)GlcNAc
# How it was run: as §1
# [37] = target: Neu5Ac(a2-3)Gal(b1-4)GlcNAc(b1-2)Man(a1-3)[GlcNAc(b1-2)Man(b1-4)GlcNAc(b1-2)Man(a1-6)]Man(b1-4)GlcNAc(b1-4)GlcNAc
# How it was run: as §1
# [38] = target: Neu5Ac(a2-3)Gal(b1-4)GlcNAc(b1-2)Man(a1-3)[Neu5Ac(a2-6)Gal(b1-4)GlcNAc(b1-2)Man(a1-6)]Man(b1-4)GlcNAc(b1-4)GlcNAc
# How it was run: as §1
# [39] = target: Neu5Ac(a2-3)Gal(b1-4)GlcNAc(b1-3)Gal
# How it was run: as §1
# [40] = target: Neu5Ac(a2-3)Gal(b1-4)GlcNAc(b1-3)Gal(b1-3)GlcNAc
# How it was run: as §1
# [41] = target: Neu5Ac(a2-3)Gal(b1-4)GlcNAc(b1-3)Gal(b1-4)GlcNAc
# How it was run: as §1
# [42] = target: Neu5Ac(a2-3)Gal(b1-4)GlcNAc(b1-3)Gal(b1-4)GlcNAc(b1-3)Gal(b1-4)GlcNAc
# How it was run: as §1
# [43] = target: Neu5Ac(a2-3)Gal(b1-4)GlcNAc(b1-3)Gal(b1-4)[Fuc(a1-3)]GlcNAc
# How it was run: as §1
# [44] = target: Neu5Ac(a2-3)Gal(b1-4)GlcNAc(b1-3)GalNAc
# How it was run: as §1
# [45] = target: Neu5Ac(a2-3)Gal(b1-4)GlcNAc(b1-6)[Gal(b1-3)]GalNAc
# How it was run: as §1
# [46] = target: Neu5Ac(a2-3)Gal(b1-4)GlcNAc(b1-6)[Neu5Ac(a2-3)Gal(b1-3)]GalNAc
# How it was run: as §1
# [47] = target: Neu5Ac(a2-3)Gal(b1-4)GlcNAc6S
# How it was run: as §1
binder,measurement,setting,value
B1,glycan array binding signal (z-score),[1],-0.186
same,glycan array binding signal (z-score),[2],-0.184
same,glycan array binding signal (z-score),[3],-0.129
same,glycan array binding signal (z-score),[4],-0.156
same,glycan array binding signal (z-score),GlcNAc(b1-6)GalNAc,-0.176
same,glycan array binding signal (z-score),GlcNAc3Prop(b1-4)GlcNAc,-0.168
same,glycan array binding signal (z-score),[5],-0.172
same,glycan array binding signal (z-score),Kdn(a2-3)Gal(b1-3)GalNAc,-0.194
same,glycan array binding signal (z-score),Kdn(a2-3)Gal(b1-3)GlcNAc,-0.159
same,glycan array binding signal (z-score),Kdn(a2-3)Gal(b1-4)Glc,-0.189
same,glycan array binding signal (z-score),Kdn(a2-3)Gal(b1-4)GlcNAc,-0.15
same,glycan array binding signal (z-score),[6],-0.191
same,glycan array binding signal (z-score),Kdn(a2-6)Gal(b1-4)GlcNAc,-0.192
same,glycan array binding signal (z-score),[7],-0.166
same,glycan array binding signal (z-score),[8],-0.186
same,glycan array binding signal (z-score),Man(a1-2)Man(a1-3)Man,-0.133
same,glycan array binding signal (z-score),[9],-0.178
same,glycan array binding signal (z-score),[10],-0.165
same,glycan array binding signal (z-score),[11],-0.175
same,glycan array binding signal (z-score),[12],-0.172
same,glycan array binding signal (z-score),[13],-0.177
same,glycan array binding signal (z-score),[14],-0.184
same,glycan array binding signal (z-score),Man(a1-3)[Man(a1-6)]Man,-0.163
same,glycan array binding signal (z-score),[15],0.098
same,glycan array binding signal (z-score),[16],-0.171
same,glycan array binding signal (z-score),[17],-0.172
same,glycan array binding signal (z-score),[18],-0.021
same,glycan array binding signal (z-score),Man(a1-6)Man,-0.173
same,glycan array binding signal (z-score),Man(b1-4)GlcNAc,-0.174
same,glycan array binding signal (z-score),Neu5Ac(a2-3)Gal,-0.148
same,glycan array binding signal (z-score),[19],-0.171
same,glycan array binding signal (z-score),[20],-0.166
same,glycan array binding signal (z-score),[21],-0.172
same,glycan array binding signal (z-score),[22],-0.184
same,glycan array binding signal (z-score),[23],-0.175
same,glycan array binding signal (z-score),[24],-0.155
same,glycan array binding signal (z-score),[25],-0.154
same,glycan array binding signal (z-score),[26],-0.171
same,glycan array binding signal (z-score),[27],-0.178
same,glycan array binding signal (z-score),[28],-0.186
same,glycan array binding signal (z-score),[29],-0.197
same,glycan array binding signal (z-score),[30],-0.188
same,glycan array binding signal (z-score),[31],-0.162
same,glycan array binding signal (z-score),[32],-0.184
same,glycan array binding signal (z-score),[33],-0.149
same,glycan array binding signal (z-score),[34],-0.18
same,glycan array binding signal (z-score),[35],-0.161
same,glycan array binding signal (z-score),Neu5Ac(a2-3)Gal(b1-4)Glc,-0.179
same,glycan array binding signal (z-score),[36],-0.163
same,glycan array binding signal (z-score),[37],-0.183
same,glycan array binding signal (z-score),[38],-0.164
same,glycan array binding signal (z-score),[39],-0.191
same,glycan array binding signal (z-score),[40],-0.186
same,glycan array binding signal (z-score),[41],-0.147
same,glycan array binding signal (z-score),[42],-0.185
same,glycan array binding signal (z-score),[43],-0.171
same,glycan array binding signal (z-score),[44],-0.191
same,glycan array binding signal (z-score),[45],-0.175
same,glycan array binding signal (z-score),[46],-0.193
same,glycan array binding signal (z-score),[47],-0.151
